# Measurements from the supplement of paper PMC11417369.
# The list shows a part of the results.
# Test system: PF3D7_0420300 AP2 domain 1 (GST-tagged)
# Assay: gcPBM binding intensity (ln(normalized median fluorescence intensity)); higher = stronger DNA binding
# Procedure, shortened: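 GST-tagged P. falciparum DNA-binding domains, expressed in E. coli (about 25 μg on average), were applied for 1 h to an Agilent 4 × 180k array of primer-extended double-stranded 36-bp intergenic genomic probes plus negative controls. The binding buffer was 1× PBS with 1% milk, 0.2 mg/ml BSA, 0.5% salmon testes DNA and 0.03% Triton X-100. Bound protein was detected with Alexa488 anti-GST antibody and scanned at 488 nm. Binding intensity is the highest Masliner-normalised natural-log median intensity across replicate spots of either probe orientation.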
row,Sequence,gcPBM binding intensity (ln)
1,TACATATATATATATGAACACACAAAAAGAATATTT [CACACA_site8421],9.58
2,ATAAGCATACATATTACACACATATAATATATATAT [CACACA_site2487],9.57
3,AGTGGATAAATTTATTCACACATTTTTTTTTTTTTT [CACACA_site5914],9.15
4,TCTTACTAATTTATGGGGACTTATCACCTATTCAGT [CACACA_negctrl_site652],9.12
5,TTTTATGAGAAACACACACACAAAAAAAAAAAAAAA [CACACA_site4129],9.49
6,CATGAATCCTAATAATGTACATAAGAATTCATAATG [XGTACX_site1607],9
7,TTATATATATGACTTTGTACATATACATATTTTTTA [XGTACX_site4669],9.21
8,GTATATTTTATTTTATGTACATATTCATTTTTTATT [XGTACX_site561],9.68
9,TCTCTTTTTCGTTCATGTACAAATAAATAAAAATAT [XGTACX_site6558],9.11
10,TATTATATATATGCACGTACAAAAATAATAAAGGTA [XGTACX_site3506],9.38
11,GTGGATATATGTATATGTACATATGTATGTATATAT [XGTACX_site2412],9.4
12,ATTTTTTTACTGGATCCATATTTGCTTTTTTATTTA [CACACA_negctrl_site1108],9.72
13,TATTAATAATTTTCATGTACATATGTATTTGTAATA [XGTACX_site858],9.18
14,ATATAATAAATGTCATGTACATACAACATTTTAACT [XGTACX_site7517],9.22
15,TGAATAAAGAAACACACACACATATATATATATGTA [CACACA_site17],10
16,TTTTTAATTTACTGTCATAGGTACCTTAACTTATCA [CACACA_negctrl_site1664],9.06
17,TACTTATGTTCGCACACATGCAAATTAAAAAAAAAA [TGCATGCA_site1023],8.96
18,TACATATACATATTGTGTACATAATAATTATTTATA [XGTACX_site7884],9.15
19,TTAATTAAGAAACACACACACATATATATATATATT [CACACA_site2290],9.97
20,AGCAACTAAAAAGGATACCCCATTAAAAAAAAATTA [XGTACX_negctrl_site489],9.08
21,TGTGTATAAAAAAAGTGTACACAAAGTAAGACTTTA [XGTACX_site3759],9.23
22,TACCAAAAAACGGCACGCATATGTATAAGAATATGT [XGTACX_negctrl_site470],9.27

row,Sequence,gcPBM binding intensity (ln)
1,AAATATATAAAAGTATGTACATATGAAAAATATATA [XGTACX_site6165],9.54
2,TTATAAAGAATTAGGAGTACAAATGCATATATAATA [XGTACX_site6580],9.35
3,TTATATAACATAACGATGTTTCAAAACATATTGTAT [CACACA_negctrl_site997],9.16
4,TTTAAAATTTAATTTTGTACATATACCAATTTTATT [XGTACX_site448],9.01
5,AATTAGCATAAATGGGTGCTACACAAAAATGCATGT [GTGCAC_site9640],9.29
6,ATATAATATATGTTATGTACATAGTTTTTATTGTTC [XGTACX_site7438],9.34
7,AATATATAATCAGATGAATTTTTTTTTTTTTTTTCA [CACACA_negctrl_site534],8.92
8,ATATAAATATGAAAAAGTACAAGCCATCAAGAAATC [XGTACX_site8140],9.78
9,AATTTTTTATTCTTTGCATGTCATCATATATAATAT [TGCATGCA_site549],9.45
10,ATATAATGTTAGGGTAGAGGAAGTAACTAATATAAA [CACACA_negctrl_site1153],9.44
11,TATAAATATTATAATTGTACATATTATAAAAATTTT [XGTACX_site2719],9.05
12,ACAAATAAAAAAATTACACACATATAAAATATAGAT [CACACA_site6756],9.82
13,TATGAGAACAAACATTGTACAATAAAAAGTAGATAT [XGTACX_site920],9.71
14,AATACATGAACTTAAAGTACTAAAAAAAAAATAATA [XGTACX_site1956],9.27
15,AGGAAAATAATTAAAGCATGCTCATTATGAAATATA [TGCATGCA_site855],9.19
16,TCTTACACTAATAAATGTACATACAAAAAATCTATT [XGTACX_site1379],9.09
17,AATTTGAATATTTGATGTACAAAGTTTTTTAATGTT [XGTACX_site3249],9.17
18,TACCCACTAAAATACACACACACACCCACATATATA [CACACA_site6141],10.2
19,GTACCAACAGCACTACTTCTCGCCATTTTCTTGTAG [XGTACX_negctrl_site97],9.66
20,GAGAGGATAGTTCACAGTACCCAGTAACTCTACGGA [XGTACX_site4876],9.17
21,ATAAATATAACATATTGTACCCTTAAAAAGGAACAA [XGTACX_site352],9
22,AAATGTATAATTTTTTAATACACTTATTTAAAATAA [CACACA_negctrl_site797],8.81
